Measurements published in PubChem BioAssay AID1159614 (National Center for Advancing Translational Sciences (NCATS), 2016).
Screen size: about 45,000 compounds; about 65 (0.1%) were called active. Calls follow the shape of the dose curve; as a rule, active = well fitted activation curve with a large enough effect; inconclusive = small, poorly fitted or top-dose-only effect; inactive = no such curve, though single readings can be large or run the other way. The list shows a part of the results.

biological target: Galactocerebrosidase (Homo sapiens) (UniProt P54803); assay: A Novel Cell-Based Assay to Identify Small Molecules for B -Galactocerebrosidase; details: 145M-Twi-hGALC-G270D cells (Twitcher mouse brain line with human GALC G270D), HMU-beta-Gal fluorescence, 48 h; series mostly up to 57.5 µM; activation: at the top concentration; also: 0% is about no effect; nearly all actives have a fitted effect of over 65% in size
UniProt P54803, sequence (P54803 whole entry, looked up): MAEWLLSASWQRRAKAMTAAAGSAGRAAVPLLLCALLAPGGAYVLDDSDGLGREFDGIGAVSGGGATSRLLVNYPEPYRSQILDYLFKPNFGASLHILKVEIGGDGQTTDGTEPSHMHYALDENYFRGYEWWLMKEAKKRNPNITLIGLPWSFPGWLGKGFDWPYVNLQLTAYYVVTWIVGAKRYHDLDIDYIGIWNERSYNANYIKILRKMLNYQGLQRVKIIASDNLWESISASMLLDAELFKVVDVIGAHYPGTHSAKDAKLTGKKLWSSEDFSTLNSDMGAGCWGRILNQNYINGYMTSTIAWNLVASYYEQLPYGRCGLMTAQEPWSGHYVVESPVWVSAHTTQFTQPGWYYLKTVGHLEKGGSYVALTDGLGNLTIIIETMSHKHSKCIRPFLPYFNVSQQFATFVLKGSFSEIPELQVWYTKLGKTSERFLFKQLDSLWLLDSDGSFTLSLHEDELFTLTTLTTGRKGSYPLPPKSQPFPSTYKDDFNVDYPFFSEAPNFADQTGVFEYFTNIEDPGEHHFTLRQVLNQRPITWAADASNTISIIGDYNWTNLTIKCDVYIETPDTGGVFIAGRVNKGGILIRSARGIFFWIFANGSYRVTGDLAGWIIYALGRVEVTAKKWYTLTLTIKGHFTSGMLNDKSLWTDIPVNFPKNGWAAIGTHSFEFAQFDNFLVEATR
How it was run: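 Fluorescence readout: HMU-β-gal cleavage by mutant GALC (0.1 mM final, citrate/phosphate pH 5.2 with 1 mg/mL taurocholate), stopped with carbonate/bicarbonate plus Triton X-100. Cells: murine Twitcher 145M-Twi expressing human G270D GALC; qHTS for activators.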

activation, inactive:
Cc1ccc(NC(=O)C2CCCN(S(=O)(=O)c3cccc4nsnc34)C2)cc1C (stereo unspecified) -19.2%
Cc1cc(NC(=O)CCn2c(=O)c3cccn3c3cccnc32)ccc1Br 2.11%
CCC(=O)N1c2ccccc2CC1C(=O)NCCc1cc(OC)c(OC)c(OC)c1 (stereo unspecified) -3.12%
NC(=O)Cc1cccc(C(=O)c2ccccc2)c1N -18.2%
CCOC(=O)Cc1ccc(NC(=O)N2CCSc3ccccc32)cc1 -9.73%
Cc1ccc(-c2nc(CS(=O)CC(=O)NCc3ccccc3Cl)c(C)o2)cc1 (stereo unspecified) -15.6%
O=c1ccc2cc(S(=O)(=O)Nc3ccc(F)c(Cl)c3)ccc2[nH]1 -8.84%
CCOc1ccc2nc(SCC(=O)Nc3ccc(F)cc3)nc(-c3ccccc3)c2c1 14.5%
COCCNC(=O)C1CCN(C(=O)c2cc3sccc3n2Cc2ccc(Cl)cc2)CC1 10.6%
CCCN(CCC)CCCNC(=O)C1CCCN(Cc2nc(-c3ccc(Cl)cc3)oc2C)C1 (stereo unspecified) 17.9%
COc1ccccc1NC(=O)CSC1=Nc2ccccc2C2=NC(CCC(=O)NCc3ccco3)C(=O)N12 (stereo unspecified) -10.6%
O=S(=O)(c1ccc(Cl)cc1)c1nc(-c2cccs2)oc1SCc1ccc(F)cc1 -13.5%
COc1cccc(CNC(=O)Cc2c(C)c3c(cc(C)c4c(C)c(C)oc43)oc2=O)c1 -9.29%
Cn1nnc2c(NCc3ccc(Cl)cc3)ncnc21 -11.6%
Cc1ccc(Cn2c(=O)n(CCc3ccc(Cl)cc3)c(=O)c3ccccc32)cc1 -16.2%
CCc1ccc(CNC(=O)c2cc3n(n2)CCCN(Cc2ccccc2)C3=O)cc1 -14.9%
COc1ccc(NC(=O)Cn2c(=O)n(Cc3ccccc3OC)c(=O)c3cccnc32)cc1Cl -21%
Cc1ccc(-n2ncc3c(NC(C)c4ccccc4)ncnc32)cc1 (stereo unspecified) -1.38%
CC1=C(C(=O)Nc2ccc(Cl)cc2)C(c2ccccc2F)n2nc(SCc3cccc(Cl)c3)nc2N1 (stereo unspecified) -6.97%
COc1ccc(OC)c(NC(=O)C2Cc3ccccc3CN2S(=O)(=O)c2ccc(F)cc2)c1 (stereo unspecified) -5.17%
Cc1cccc(Nc2nc(N)nc(N)c2S(=O)(=O)c2ccccc2)c1 -5.57%
O=C(c1ccccc1F)N1c2ncnn2C2(CCCCC2)[C@@H]2CCCC[C@@H]21 -12.3%
Cc1cccc(NC(=O)CSc2ncc(-c3ccccc3)[nH]2)c1C -12.6%
CCSc1ncc(Cl)c(C(=O)Nc2nnc(CC)s2)n1 -13.4%
O=C(C1CCN(c2ncnc3c2nc2n3CCCCC2)CC1)N1CCN(c2ccccc2F)CC1 -2.44%
CCOc1ccc2oc(=O)cc(CN3CCN(C(=O)c4ccc(OC)c(OC)c4)CC3)c2c1 2.48%
Cc1c(C)n(Cc2ccc(F)cc2)c2ccc(C(=O)N3CCN(c4ccc(F)cc4)CC3)cc12 -12.9%
COc1ccc(C2=C(C)C(N3CCC(C(=O)Nc4ccccc4F)CC3)=NS2(=O)=O)cc1 -0.75%
CCC(C(=O)NCCc1ccccc1)n1nc(C)c2sc3ccccc3c2c1=O (stereo unspecified) 7.2%
Cc1ccc(-n2c(=O)c3c4c(sc3n(Cc3cc(=O)n5cc(Cl)ccc5n3)c2=O)CCC4)cc1C -16.3%
CCOC(=O)c1ccccc1NC(=O)CN(c1cccc(C)c1C)S(=O)(=O)c1ccccc1 -1.04%
CC(=O)N1CCCc2cc(S(=O)(=O)N3CCCC(C(=O)NCc4ccccc4Cl)C3)ccc21 (stereo unspecified) -20.7%
CCc1ccc(-c2nn(CC(=O)NC3CCCCC3)c3c2cnc2ccc(F)cc23)cc1 -7.67%
COc1ccccc1CNC(=O)c1cc2c(=O)oc3ccc(C)cc3c2s1 -11%
COc1ccc(CNC(=O)c2cc3c(=O)n(Cc4cccnc4)ccc3nc2C)cc1 -14.3%
CCCNS(=O)(=O)c1cc(-c2nn3c(C)nnc3c3ccccc23)ccc1C -8.46%
COc1ccccc1CCNC(=O)Cc1ccc(NC(=O)N2CCSc3ncccc32)cc1 -24%
CC(=O)c1ccc(S(=O)(=O)N2CCn3cccc3C2c2ccccc2F)cc1 (stereo unspecified) -1.67%
COc1cccc(NC(=O)CSc2nc3c([nH]c4ccccc43)c(=O)n2-c2cc(C)cc(C)c2)c1 -21%
Cc1cc(C)cc(NC(=O)Cc2csc(C)n2)c1 2.74%
CCc1cccc(OCC(=O)Nc2ccc(S(=O)(=O)Nc3ncccn3)cc2)c1 2.95%
CCOc1ccccc1NC(=O)C1CCN(S(=O)(=O)c2ccc3[nH]c(=O)oc3c2)CC1 -12.7%
CC1CCc2c(cc(-c3ccccc3)n2-c2ccc(C(=O)NC(C)C)cc2)C1 (stereo unspecified) 18.8%
Cc1cccc(C)c1OCc1nc2c3cnn(-c4ccccc4F)c3ncn2n1 -11.8%
CC(C)(C)c1ccc(OCc2nc3ccccc3n2CCOc2ccccc2)cc1 -14.4%
O=C(CCS(=O)(=O)c1cc(Br)cc2c1N(C(=O)C1CC1)CC2)N1CCN(c2cccc(Cl)c2)CC1 -35.5%
CCC(C)NC(=O)c1c(C)oc2ncn(CC(C)C)c(=O)c12 (stereo unspecified) -9.92%
COc1ccc(-c2nc3ccccc3n3c(-c4cccc(C)c4)c4c(=O)n(C)c(=O)n(C)c4c23)cc1OC -5.86%
CC1=C(C(=O)OC2CCCC2)C(c2c(Cl)cccc2Cl)CC(=O)N1 (stereo unspecified) -8.46%
CCCCNC(=O)CSc1nc2cc3c(cc2c(=O)n1CCCC(=O)NCCc1ccc(OC)c(OC)c1)OCO3 -2.23%
Cc1cc(C(=O)N2CCN(c3ccccc3)CC2)c2c(C)nn(-c3cccc(F)c3)c2n1 -5.59%
COc1cc(NC(=O)C2CCN(C(=O)c3sc4nc[nH]c(=O)c4c3C)CC2)cc(OC)c1OC 2.47%
CCCCNC(=O)C1CCC(Cn2c(=O)c3sccc3n(Cc3ccccc3)c2=O)CC1 (stereo unspecified) -11.3%
O=C(Cn1c(=O)n(CCc2ccccc2)c(=O)c2cccnc21)Nc1ccc(F)cc1 -21.2%
CCOc1ccccc1OCC1CNCCO1 (stereo unspecified) -19%
Cc1cc(C)c(NC(=O)c2nc3ccccc3nc2N2CCCCC2)c(C)c1 -13.4%
CCC(=O)N1CCc2cc(S(=O)(=O)NC(C(=O)NCCc3ccc(OC)c(OC)c3)C(C)C)ccc21 (stereo unspecified) -5.21%
Cc1cc(C)cc(NC(=O)CSc2oc(-c3ccccc3)nc2S(=O)(=O)c2ccc(Cl)cc2)c1 -4.76%
CCOC(=O)c1ccccc1NC(=O)Cn1ncc2c1-c1ccccc1OC2 -29.8%
Cc1ccc(CNC(=O)c2nn(-c3ccc(Cl)cc3)nc2CO)cc1 -27%
Cc1ccccc1CSc1nnc2[nH]c(=O)cc(-c3ccccc3)n12 -20.6%
